# Earlier results as cited in patent US5616566A, “Method of inhibiting HIV replication with 2',3'-dideoxyadenosine” (The United States of America as represented by the …, priority 1993, dated 1997).
# System: Herpes simplex type I DNA polymerase
# Settings: cited from earlier work
compound,measurement,value
"Cc1cn([C@H]2CC[C@@H](CO)O2)c(=O)[nH]c1=O [2',3'-dideoxythymidine]",resistance of Herpes simplex type I DNA polymerase,"as resistant to 2',3'-dideoxythymidine as cellular DNA polymerase alpha"
